These results are taken from PMC6919601, “Identification of Plasmodium dipeptidyl aminopeptidase allosteric inhibitors by high throughput screening” (PLoS ONE, 2019).

Molecules are shown by their SMILES. The whole screen tested about 110,000 compounds, of which about 230 (0.21%) showed an effect of 50% or more. The list shows a part of the results.
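Further: 30 min substrate incubation versus DMSO and 10 µM JCP410 controls.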

This assay deals with DPAP1 (Plasmodium falciparum, UniProt Q8IIJ9). Description: primary screen, percent inhibition; read by cleavage of a fluorogenic dipeptide substrate; higher = more effect of the substance. On the set-up: species or system P. falciparum D10 trophozoite lysates; single well.
Sequence of DPAP1 (Q8IIJ9 whole entry, looked up): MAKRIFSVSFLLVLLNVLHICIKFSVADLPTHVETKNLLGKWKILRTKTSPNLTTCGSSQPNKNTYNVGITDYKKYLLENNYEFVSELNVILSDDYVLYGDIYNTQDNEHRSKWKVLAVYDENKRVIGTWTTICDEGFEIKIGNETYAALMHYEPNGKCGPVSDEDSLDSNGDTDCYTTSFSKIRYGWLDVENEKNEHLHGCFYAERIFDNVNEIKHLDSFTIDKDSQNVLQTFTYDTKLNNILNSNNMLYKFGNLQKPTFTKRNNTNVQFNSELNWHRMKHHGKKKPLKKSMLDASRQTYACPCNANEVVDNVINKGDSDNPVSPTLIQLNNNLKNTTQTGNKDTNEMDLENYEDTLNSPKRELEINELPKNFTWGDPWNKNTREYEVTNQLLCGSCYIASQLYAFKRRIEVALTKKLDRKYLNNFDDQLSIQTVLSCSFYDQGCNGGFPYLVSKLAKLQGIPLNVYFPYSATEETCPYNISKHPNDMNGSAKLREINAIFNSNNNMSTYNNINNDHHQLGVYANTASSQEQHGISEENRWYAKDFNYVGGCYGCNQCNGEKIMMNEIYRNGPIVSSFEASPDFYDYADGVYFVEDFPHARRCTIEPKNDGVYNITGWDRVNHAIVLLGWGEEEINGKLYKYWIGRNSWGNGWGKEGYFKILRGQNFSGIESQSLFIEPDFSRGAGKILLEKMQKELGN
As to `COc1ccc(/C=C2N=C(/C=C/c3ccc(C)cc3)OC\2=O)c(OC)c1`, the “% Inhibition @ 10 uM” value came out at 0.0932%.

Turning to `O=C(CCCCC(=O)Nc1cccc(Cl)c1)Nc1cccc(Cl)c1`, the “% Inhibition @ 10 uM” value was -4.43%.

Turning to `N#CC1=C(N)Oc2c(cc(Cl)c3ccccc23)C1c1cccnc1` (stereo not shown), the “% Inhibition @ 10 uM” value was 6.8%.

Take `c1ccc(CC2CCN(Cc3ccco3)CC2)cc1`: the “% Inhibition @ 10 uM” value was -2.56%.

In the case of `CS(=O)(=O)c1ccc2nc(NC(=O)COc3ccc(Cl)cc3Cl)sc2c1`, the “% Inhibition @ 10 uM” value was -0.99%.

On to `O=c1nc(/C=C/c2ccccc2)[nH]c(=O)[nH]1`, for which the “% Inhibition @ 10 uM” value is on record as -4%.

Consider `N#Cc1ccc(NC(=O)COc2ccc3ccccc3c2)cc1`, for which the “% Inhibition @ 10 uM” value is given as -2.16%.

`O=C(O)C1C2CC3CC(C2)CC1(n1ncc(NC2CCCCC2)c(Cl)c1=O)C3` (stereo not shown): the “% Inhibition @ 10 uM” value was 5.84%.

As for `Cn1cccc1Cc1nnc(SCC(=O)N2CCCC2)n1Cc1ccccc1`, the “% Inhibition @ 10 uM” value is recorded as -4.97%.

In the case of `CCO/C(O)=C1\C(CC)=NC2=C(C(=O)CC(C)(C)C2)C1c1ccc2c(c1)OCO2` (stereo not shown), the “% Inhibition @ 10 uM” value is given as -0.999%.

As for `Cc1cc(C)c(C#N)c(SCc2ccccn2)n1`, the “% Inhibition @ 10 uM” value worked out at 66.4%.

Take `NC(NC(=O)c1ccccc1)=C1C(=O)CCC1=O`: the “% Inhibition @ 10 uM” value is recorded as -5%.

Consider `O=C(Nc1cnc2ccccn2c1=O)NC1CCCC1`, for which the “% Inhibition @ 10 uM” value worked out at 3.66%.

As for `O=C(Nc1cccc(F)c1)c1ccccc1C(=O)c1ncc[nH]1`, the “% Inhibition @ 10 uM” value amounted to 1.04%.

Regarding `NC(=O)C1CCN(C(=O)CSCc2cnn(-c3ccccc3)c2-n2cccc2)CC1`, the “% Inhibition @ 10 uM” value is -1.08%.

For the molecule `CCOC(=O)N1CCN(c2c(N(C)C3CCCCC3)c(=O)c2=O)CC1`, the “% Inhibition @ 10 uM” value was 1.93%.

Consider `CCn1c(C(=O)O)c(CNCc2ccc(Cl)cc2)c2ccc(C)cc21`, for which the “% Inhibition @ 10 uM” value is listed as 0.16%.

With `CCC1CCCCN1CCCNc1nc2ccccc2n2c(C)nnc12` (stereo not shown), the “% Inhibition @ 10 uM” value stood at 0.658%.

For the molecule `CCN(CC)CCNc1sc(S(=O)(=O)CC)nc1S(=O)(=O)c1ccc(C)cc1`, the “% Inhibition @ 10 uM” value is -4.26%.

`COc1cc(C2C3=C(O)CC(C)(C)CC3=NC(C)=C2C(=O)N2CCOCC2)cc(Cl)c1O` (stereo not shown): the “% Inhibition @ 10 uM” value is -6.38%.

Take `Cc1cc(Cl)ccc1OCCCC(=O)Nc1ccccn1`: the “% Inhibition @ 10 uM” value is reported as -2.19%.

For the molecule `CCC(C(=O)Nc1cc(C)on1)c1nc2ccccc2o1` (stereo not shown), the “% Inhibition @ 10 uM” value is recorded as -14.5%.

Turning to `Fc1ccc(N2CCN(C3CCN(CCc4ccccc4)CC3)CC2)cc1`, the “% Inhibition @ 10 uM” value came to 1.88%.

In the case of `CCOCCCn1c(SCC(=O)NCc2ccc(C)cc2)nc2c(sc3ccccc32)c1=O`, the “% Inhibition @ 10 uM” value is on record as 9.46%.

In the case of `O=C(NCc1ccc(F)cc1)c1ccc2snnc2c1`, the “% Inhibition @ 10 uM” value was -7.27%.

As for `COc1ccc2ccccc2c1CN1CCN(C(=O)Cc2ccccc2)CC1`, the “% Inhibition @ 10 uM” value amounted to 0.587%.

For the molecule `CCc1nnc(NC(=O)Cc2noc3ccccc23)s1`, the “% Inhibition @ 10 uM” value is reported as -3.49%.

As for `CC(=O)c1ccc(C(=O)N[C@@H](CC(C)C)C(=O)NCC#N)cc1`, the “% Inhibition @ 10 uM” value is given as 0.174%.

Turning to `CC(C)(Oc1ccc(Cl)cc1)C(=O)N1CCC(C(N)=O)CC1`, the “% Inhibition @ 10 uM” value was determined as 1.37%.

As for `Cc1c(C(c2cccc(Cl)c2)c2c(C)n(C)n(-c3ccccc3)c2=O)c(=O)n(-c2ccccc2)n1C`, the “% Inhibition @ 10 uM” value amounted to 2.13%.

In the case of `Cc1ccc(-c2c(C)sc(NC(=O)c3ccnn3C)c2C(N)=O)cc1C`, the “% Inhibition @ 10 uM” value is on record as -0.318%.

`COc1ccc(N2C(=O)N(c3ccccc3)C3CS(=O)(=O)CC32)cc1` (stereo not shown): the “% Inhibition @ 10 uM” value is recorded as 4.49%.

On to `COc1ccc(-c2cc(N)n(CCC#N)n2)c(OC)c1`, for which the “% Inhibition @ 10 uM” value was 0.708%.

With `N#C/C(=C\c1cccs1)c1nc(-c2ccc(F)cc2)cs1`, the “% Inhibition @ 10 uM” value amounted to 5.29%.

For `Cc1cccc2c1-c1sc(C(=O)N3CCN(C)CC3)cc1CO2`, the “% Inhibition @ 10 uM” value was 7.82%.

As to `CCn1c(SCc2nc(-c3ccc(Cl)cc3)no2)nnc1-c1ccncc1`, the “% Inhibition @ 10 uM” value is -0.666%.

Regarding `CC(C)(C)NC(=O)CSc1ccc(C(C)(C)C)cc1`, the “% Inhibition @ 10 uM” value is reported as -2.83%.

Consider `CCCC(=O)Nc1nc(-c2ccc(F)cc2)cs1`, for which the “% Inhibition @ 10 uM” value is 4.83%.

On to `COc1ccc(OC)c(C2NCCc3c2[nH]c2ccccc32)c1` (stereo not shown), for which the “% Inhibition @ 10 uM” value is reported as -5.74%.

Take `CC(C)c1ccc(NC(=O)CN(C2CCCCC2)S(C)(=O)=O)cc1`: the “% Inhibition @ 10 uM” value is listed as -0.545%.

As to `O=C(NC1CCCCCC1)NC1CCCCC1`, the “% Inhibition @ 10 uM” value was -5.35%.

As for `CC1CC(C)CN(C(=O)C2CCN(S(=O)(=O)N3CCC4(CC3)OCCO4)CC2)C1` (stereo not shown), the “% Inhibition @ 10 uM” value was found to be 2.18%.

With `O=C(NCCc1c[nH]c2ccccc12)c1noc2c1COc1ccccc1-2`, the “% Inhibition @ 10 uM” value is listed as 91.5%.

On to `CC(C)N(C(=O)Cn1cc(SCC(N)=O)c2ccccc21)C(C)C`, for which the “% Inhibition @ 10 uM” value was -1.11%.

Take `COc1ccc(Br)cc1C1CC(=O)N2CN(C)CSC2=C1C#N` (stereo not shown): the “% Inhibition @ 10 uM” value was 58.8%.

On to `Cc1ccc2nc3c(cc(C(=O)NCc4ccccc4)c(=N)n3CC3CCCO3)c(=O)n2c1` (stereo not shown), for which the “% Inhibition @ 10 uM” value is -1.47%.

As for `N/C(=C\C(=O)c1cccs1)C(F)(F)F`, the “% Inhibition @ 10 uM” value is on record as 4.38%.

With `COc1ccc(OC2CCN(S(=O)(=O)c3ccc(OC)c(OC)c3)CC2)cc1`, the “% Inhibition @ 10 uM” value was -6.56%.

For `CN(C)CCCN(C(=O)c1ccccc1)c1nc2ccc(F)cc2s1`, the “% Inhibition @ 10 uM” value is given as -4.61%.

As to `Cc1ccccc1-c1noc(CCC(=O)NC(C)(C)C)n1`, the “% Inhibition @ 10 uM” value is reported as -3.12%.

Regarding `COc1cc(CNCc2cccs2)ccc1OCC(N)=O`, the “% Inhibition @ 10 uM” value was 3.65%.

With `O=C(CN1Cc2ccccc2C1=O)N1CCN(c2ccccn2)CC1`, the “% Inhibition @ 10 uM” value is -0.501%.

`COC(=O)c1c(-c2ccc(F)cc2)csc1N`: the “% Inhibition @ 10 uM” value is given as 9.68%.

Turning to `CSc1ccc(/C=c2\sc3nc4ccccc4n3c2=O)cc1`, the “% Inhibition @ 10 uM” value is -3.14%.

As for `CCOC(=O)C1=C(C)NC(=O)CC1c1ccc(Cl)cc1Cl` (stereo not shown), the “% Inhibition @ 10 uM” value stood at 4.52%.

On to `CC(C)(C)c1ccc(OCCCN2CCCC2)cc1`, for which the “% Inhibition @ 10 uM” value was -8.01%.

For `Cc1nnc(SCc2cccc(F)c2)c2cc3sccc3n12`, the “% Inhibition @ 10 uM” value is reported as 3.08%.

For `Cc1cc(-c2ccc(C)c(S(=O)(=O)Nc3ncccc3C)c2)on1`, the “% Inhibition @ 10 uM” value was -9.1%.

Take `CC(=O)C1=C(O)C(=O)N(CCc2c[nH]c3ccccc23)C1c1ccc(C(C)C)cc1` (stereo not shown): the “% Inhibition @ 10 uM” value turned out to be 6.15%.

For the molecule `CCN(CC)CCNC(=O)CCc1c(C)nc2c(c1C)c(=O)n(C)c(=O)n2C`, the “% Inhibition @ 10 uM” value came out at 3.75%.

In the case of `CCOC(=O)N1CCC(NC(=O)CNS(=O)(=O)c2ccc(Br)s2)CC1`, the “% Inhibition @ 10 uM” value is recorded as -4.07%.

As to `COc1ccc(S(=O)(=O)N(CC(=O)NC(C)c2ccccc2)C2CCCCC2)cc1OC` (stereo not shown), the “% Inhibition @ 10 uM” value was -3.74%.

In the case of `O=C(Cn1c(=O)n(CCc2ccccc2)c(=O)c2sc3ccccc3c21)NC1CCCCC1`, the “% Inhibition @ 10 uM” value is on record as -8.42%.

`CC(=O)c1cccc(NC(=O)C(Cc2ccc([N+](=O)[O-])cc2)N2C(=O)c3ccccc3C2=O)c1` (stereo not shown): the “% Inhibition @ 10 uM” value is recorded as 1.44%.
